From patent publication US20250297009A1 (BIOTHEUS, published 2025) come the findings set out here.

Experiment [1] deals with T1, Human TGF-β1 (Acrobiosystems, TG1-H421) (human, UniProt P01137 in part).
T1 construct: also called human TGF-β1 protein
The experiment can be described thus: ELISA, human TGF-β1 coated, mouse anti-human Fc-HRP detection.

Experiment [2] deals with T2, Human TGF-β3 (PeproTech, 100-36E) (human, UniProt P10600 301-412).
T2 sequence (looked up): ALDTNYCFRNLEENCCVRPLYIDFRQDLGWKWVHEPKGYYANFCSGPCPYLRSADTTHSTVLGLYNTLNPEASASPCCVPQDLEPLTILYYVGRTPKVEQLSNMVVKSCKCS
The experiment can be described thus: ELISA, human TGF-β3 coated, mouse anti-human Fc-HRP detection.

Experiment [3] concerns the target T3, human PD-1 (Uniprot: Q15116) on cells (human, UniProt Q15116 25-288).
T3 construct: whole, on cells; The cell type is named under assay or readout; also called CHO-huPD-1 cells; CHO cells overexpressing human PD-1
Nature of the experiment: flow cytometry on CHO cells overexpressing human PD-1; without TGF-β1.

Experiment [4] deals with T1, Human TGF-β1 (Acrobiosystems, TG1-H421). The experiment can be described thus: co-binding ELISA, TGF-β1 coated, detection with biotin-huPD-1 and streptavidin-HRP.
T1 sequence (P01137 279-390 limits assumed): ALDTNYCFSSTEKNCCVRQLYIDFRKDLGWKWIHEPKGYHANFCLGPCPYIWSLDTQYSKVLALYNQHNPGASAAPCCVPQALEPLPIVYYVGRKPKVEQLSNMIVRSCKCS
The target in experiment [5] is T3, human PD-1 (Uniprot: Q15116) on cells. Nature of the experiment: flow cytometry on CHO cells overexpressing human PD-1, fluorescent secondary antibody.
T3 sequence (Q15116 25-288): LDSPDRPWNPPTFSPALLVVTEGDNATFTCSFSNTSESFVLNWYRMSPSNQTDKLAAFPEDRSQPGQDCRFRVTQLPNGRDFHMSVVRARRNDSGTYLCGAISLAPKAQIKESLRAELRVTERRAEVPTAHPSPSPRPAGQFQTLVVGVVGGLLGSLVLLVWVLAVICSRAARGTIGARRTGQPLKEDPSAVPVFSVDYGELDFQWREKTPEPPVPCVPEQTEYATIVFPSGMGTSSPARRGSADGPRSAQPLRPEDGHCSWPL
Experiment [6] shares this target. Nature of the experiment: flow cytometry on CHO cells overexpressing human PD-1; 54872-TGF-βRII pre-incubated with human TGF-β1.
Experiment [7] deals with human PD-1 protein (ELISA coat or Biotin-PD-1 of Example 16) (human, UniProt Q15116 in part, limits assumed). The experiment can be described thus: co-binding ELISA, human PD-1 protein coated, detection with biotin anti-TGF-βRII antibody and streptavidin-HRP.
In experiment [8] the target is T3, human PD-1 (Uniprot: Q15116) on cells. Nature of the experiment: flow cytometry blocking assay on CHO cells overexpressing human PD-1; blocked ligand: human PD-L1; without TGF-β1.
Experiment [9] shares this target. Nature of the experiment: flow cytometry blocking assay on CHO cells overexpressing human PD-1; blocked ligand: human PD-L1; 54872-TGF-βRII pre-incubated with human TGF-β1.
For experiment [10], the target named is T4, cynomolgus monkey PD-1 (Uniprot: BOLAJ3 as printed) on CHO-S cells (cynomolgus monkey).
T4 construct: whole, on cells; also called CHO-cynoPD-1 cells; CHO cells overexpressing cynomolgus monkey PD-1
Nature of the experiment: flow cytometry on CHO cells overexpressing cynomolgus monkey PD-1 according to legend paragraph 157 and Example 11 (the title on the sheet prints CHO-huPD-1), fluorescent secondary antibody.

Experiment [11] has as its target T3, human PD-1 (Uniprot: Q15116) on cells. Nature of the experiment: flow cytometry on CHO-S cells overexpressing human PD-1. An excerpt:
(§1) By transfecting human PD-1 (Uniprot: Q15116), cynomolgus monkey PD-1 (Uniprot: BOLAJ3) cDNA pCHO1.0 vector (purchased from Invitrogen) into CHO-S cellsand following with pressure screening, CHO-S cells overexpressing human PD-1 (CHO-huPD-1 cells) and CHO-S cells overexpressing cynomolgus monkey PD-1 (CHO-cynoPD-1 cells) were produced. The overexpressed cells after expansion culture were adjusted to the appropriate cell density and added to a 96-well flow plate, centrifuged and then added with gradiently diluted samples, and incubated at 4° C. for 30 minutes. Washing was performed twice with PBS, fluorescent secondary antibody correspondingly diluted to the appropriate concentration was added, incubated at 4° C. for 30 minutes, and washed twice with PBS. The cells were resuspended in PBS, and detected on a CytoFlex flow cytometer, and the corresponding MFI was calculated. Graphpad software was used for graphical analysis to obtain EC₅₀ values.

Experiment [12] addresses T4, cynomolgus monkey PD-1 (Uniprot: BOLAJ3 …). The experiment can be described thus: flow cytometry on CHO-S cells overexpressing cynomolgus monkey PD-1.
Excerpt: as §1

The target in experiment [13] is T3, human PD-1 (Uniprot: Q15116) on cells. The experiment can be described thus: flow cytometry, competition with bio-human PD-L1-Fc (0.5 µg/mL) on CHO-huPD-1 cells.
The target of experiment [14] is T5, Human PD-1-his protein (human PD-1 extracellular domain with his tag) (human, UniProt Q15116 in part).
T5 construct: also called PD-1-his antigen; not shown: his tag
Nature of the experiment: BLI (ForteBio), Fc-scFv loaded on AHQ sensor, 100 nM PD-1-his in solution, monovalent, 1:1 model. As for the experimental part: (§2) The binding dissociation constant (KD) values of the antibody obtained in Example 1 binding to human and cynomolgus monkey PD-1 were determined by biofilm optical interference technology (ForteBio). Fortebio affinity determination was carried out according to the existing method (Este, P et al. High throughput solution-based measurement of antibody-antigen affinity and epitope binning. Mabs, 2013.5(2): p. 270-8), and the extracellular amino acid sequences of human and cynomolgus monkey PD-1 were as set forth in SEQ ID NO:20 and 21, respectively.
(§3) The sensor loaded with antibody was exposed to 100 nM PD-1-his antigen until the plateau phase, and then the sensor was transferred to the assay buffer for at least 2 minutes for dissociation rate measurement. The kinetic analysis was performed using a 1:1 binding model.

The target of experiment [15] is T6, Cynomolgus monkey PD-1-his protein (cynomolgus monkey PD-1 extracellular domain with his tag) (cynomolgus monkey, UniProt Q15116 in part (human entry)).
T6 construct: also called Cyno PD-1-his; not shown: his tag
T6 chain: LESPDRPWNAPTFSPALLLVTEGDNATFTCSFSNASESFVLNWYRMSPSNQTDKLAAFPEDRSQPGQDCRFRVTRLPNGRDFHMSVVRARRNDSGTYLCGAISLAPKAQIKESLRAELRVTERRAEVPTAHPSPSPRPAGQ
The description is as above. The protocol: as §2, §3

B1: anti-PD-1/TGF-β fusion protein 54872-TGF-βRII (other)
heavy: QVQLVQSGAEVKKPGASVKVSCKASGYTFTEYYIYWVRQAPGQGLEWIGGINPSNGGTNFNEKFKPRVTMTVDTSTSTAYMELSSLRSEDTAVYYCTVRDFRFDKGFKYWGQGTLVTVSSASTKGPSVFPLAPSSKSTSGGTAALGCLVKDYFPEPVTVSWNSGALTSGVHTFPAVLQSSGLYSLSSVVTVPSSSLGTQTYICNVNHKPSNTKVDKKV[sequence of human IgG1 Fc with changes not given]GGGGAGGGGAGGGGAGGGGAGIPPHVQKSVNNDMIVTDNNGAVKFPQLCKFCDVRFSTCDNQKSCMSNCSITSICEKPQEVCVAVWRKNDENITLETVCHDPKLPYHDFILEDAASPKCIMKEKKKPGETFFMCSCSSDECNDNIIFSEEYNTSNPD
light: EIVLTQSPATLSLSPGERATLSCRASKSVSTSGLNYVHWYQRKPGQAPRLLIYLGSYLDSGVPARFSGSGSGTDFTLTISSLEPEDFAVYYCQQSWELPLTFGGGTKVEIKRTVAAPSVFIFPPSDEQLKSGTASVVCLLNNFYPREAKVQWKVDNALQSGNSQESVTEQDSKDSTYSLSSTLTLSKADYEKHKVYACEVTHQGLSSPVTKSFNRGEC
notes: also called PD-1 antibody/TGF-βRII extracellular region fusion protein
Take B1: the “EC50 (read off the curve)” value in experiment [1] was around 0.3 nM; in [2], around 0.2 nM; in experiment [3], around 9 nM; in experiment [4], around 0.7 nM; in [5], around 9 nM; in experiment [6], around 7 nM. Besides, the “EC50 (read off the curve)” value was around 0.07 nM in experiment [7] and around 10 nM in [10]. Also, the “IC50 (read off the curve)” value in experiment [8] and in [9] was around 7 nM throughout.

B2: ADI-54872-1 (anti-PD-1 scFv derivative, Fc-scFv) (Fc fusion)
chain: [sequence of human IgG1 Fc not given]GGGSGGGGSQVQLVQSGAEVKKPGASVKVSCKASGYTFTEYYIYWVRQAPGQCLEWIGGINPSNGGTNFNEKFKPRVTMTVDTSTSTAYMELSSLRSEDTAVYYCTVRDFRFDKGFKYWGQGTLVTVSSGGGGSGGGGSGGGGSGGGGSEIVLTQSPATLSLSPGERATLSCRASKSVSTSGLNYVHWYQRKPGQAPRLLIYLGSYLDSGVPARFSGSGSGTDFTLTISSLEPEDFAVYYCQQSWELPLTFGCGTKVEIK
notes: Fc at the N-terminus of the scFv; also called anti-PD-1 scFv molecule; anti-PD-1 Fc-scFv protein
On to B2, for which the EC50 in experiment [11] was 5.74 nM; in experiment [12] it was 6.45 nM. This molecule showed an IC50 in [13] of 7.14 nM. For the same molecule, the Kd in experiment [14] was found to be 1.17 nM; in experiment [15], 1.05 nM.

B3: ADI-63628 (anti-PD-1 scFv derivative, Fc-scFv) (Fc fusion)
chain: [sequence of human IgG1 Fc not given]GGGAGGGGAQVQLVQSGAEVKKPGASVKVSCKASGFTFTEYYIYWVRQAPGQCLEWIGGINPSNGGTNFNEKFKPRVTMTVDTSTSTAYMELSSLRSEDTAVYYCTVRDFRFDKGFKYWGQGTLVTVSSGGGGSGGGGSGGGGSGGGGSEIVLTQSPATLSLSPGERATLSCRASKSVSTSGLNYVHWYQRKPGQAPRLLIYLGSYRDSGVPARFSGSGSGTDFTLTISSLEPEDFAVYYCQQSWELPLTFGCGTKVEIK
notes: Fc at the N-terminus of the scFv
In the case of B3, the EC50 is 4.82 nM in experiment [11] and 5.18 nM in [12]. The IC50 in [13] was 6.11 nM. For the same molecule, the Kd in experiment [14] is 0.39 nM; in experiment [15], 0.238 nM.
